Source: PubChem BioAssay AID463173 (ICCB-Longwood Screening Facility, Harvard Medical School, 2010)
About 1,700 (3.3%) of roughly 52,000 compounds were called active. Cut-off read from the data, not from the text of the source: active = survival mostly below about 52% (no sharp cut-off); inactive = mostly above about 56%. The list shows a part of the results.

test system: Wild type; assay: S. aureus survival, RN4220 and DeltatarO strains – OD600, teichoic acid synthesis inhibitors, primary screen (AID 463173); conditions: S. aureus RN4220 wild type/DeltatarO growth, OD600, 18 h, active compounds read low, screened at 18.75 µg/mL (by protocol)

Row | SMILES | survival
1 | COc1ccccc1C(=O)Nc1ccccc1SCc1cc(=O)c2ccccc2[nH]1 | inactive: 68%
2 | CCN(CC)C(=O)Cn1c(=O)n(CCCCCC(=O)NCc2ccccc2)c(=O)c2sccc21 | inactive: 74%
3 | CCOc1cc(/C=C(\C#N)C(=O)Nc2ccccc2C)ccc1OCc1cc(=O)n2nc(CC)sc2n1 | inactive: 136%
4 | Cc1ccn(CC(C)C(=O)O)n1 (stereo unspecified) | inactive: 107%
5 | c1ccc(CNc2nnnn2-c2ccccc2)cc1 | inactive: 106%
6 | O=C(NC1CC(=O)N(c2ccc(F)cc2)C1)C1CCCCC1 (stereo unspecified) | inactive: 65%
7 | COc1cccc(C(c2c(O)cc(C)n(Cc3ccco3)c2=O)N2CCC(C)CC2)c1 (stereo unspecified) | inactive: 81%
8 | CN(CC(=O)O)Cc1nc2ccccc2[nH]1 | inactive: 105%
9 | CCOc1ccc(-c2csc(-c3nc(-c4ccc(Br)s4)cs3)n2)cc1 | inactive: 63%
10 | Cc1nnc(SCC(=O)NCc2ccc(N(C)C)cc2)c2nn(-c3ccccc3)c(C)c12 | inactive: 84%
11 | Cc1ccc(NC(=O)C2CCN(c3nnc(-n4cccc4)s3)CC2)cc1Cl | inactive: 79%
12 | COc1ccc(OC)c2sc(N(Cc3cccnc3)C(=O)c3ccc(C(C)=O)cc3)nc12 | inactive: 129%
13 | COc1ccc(-c2nc(C)c(CCNC(=O)c3cc(OC)c(OC)c(OC)c3)s2)cc1OC | inactive: 57%
14 | Cc1ccc(C)c(N2CCN(S(=O)(=O)c3ccc4c(c3)CC(=O)N4C)CC2)c1 | inactive: 140%
15 | Cc1ccc(C(=O)COC(=O)c2cccc(NC(=O)c3ccc(Br)cc3)c2)cc1 | inactive: 74%
16 | CC(C)CCNC(=O)c1cccc(-n2cnc3cccnc32)c1 | inactive: 136%
17 | CCCN(C(=O)Cc1c(C(=O)O)[nH]c2ccc(Cl)cc12)c1ccc(OCC)cc1 | inactive: 53%
18 | CCc1ccc2[nH]c(=O)c(C(c3nnnn3C3CCCC3)N(C)Cc3ccccc3)cc2c1 (stereo unspecified) | inactive: 101%
19 | CCCCN(CC)CCCNC(=O)C1CCN(c2nc3ccc(CC)cc3s2)CC1 | inactive: 79%
20 | COc1cccc(CNC(=O)Cn2c(SCC(=O)Nc3ccc(F)cc3)nc3ccccc32)c1 | active: 0%
21 | Cc1cccc(CS(=O)(=O)Cc2ccc(C(=O)NC(C)c3ccccc3)o2)c1 (stereo unspecified) | inactive: 74%
22 | Cc1ccc2c(c1)-c1c(c(C(=O)NCCc3ccccc3)nn1C)CS2 | active: 10%
23 | CCOCCCNC(=O)c1[nH]c2cc(OC)ccc2c1Sc1ccccc1 | inactive: 86%

Row | SMILES | survival
24 | COc1ccc(CCC(=O)NCc2nc3cccnc3n2Cc2ccc(C)cc2)cc1 | inactive: 68%
25 | C=CCN1C(=O)C(CCC(=O)O)NC1=S (stereo unspecified) | inactive: 91%
26 | Cc1ccc(S(=O)(=O)NCC(c2ccco2)N2CCN(c3ccccc3F)CC2)cc1 (stereo unspecified) | inactive: 84%
27 | Cc1cccc(N(CC(=O)Nc2cccc(Cl)c2C)S(C)(=O)=O)c1C | inactive: 70%
28 | COC(=O)c1c(NC(=O)c2nc(SCc3ccc(C)cc3)ncc2Cl)sc2c1CCCC2 | inactive: 85%
29 | N#Cc1ccccc1NC(=O)Nc1ccccc1 | inactive: 108%
30 | CCCN1C(=O)CN(C2CCCCC2)C(=O)C1c1ccc(OC)c(OC)c1 (stereo unspecified) | inactive: 84%
31 | COc1ccc(NC(=O)Cn2c(=O)n(CCC(=O)NCCc3ccc(OC)c(OC)c3)c(=O)c3ccccc32)cc1Cl | inactive: 92%
32 | Cc1nn(CC(=O)O)c(C)c1C | inactive: 121%
33 | CCNc1nc(NCC)nc(N(C#N)CC)n1 | inactive: 110%
34 | CCCCCNS(=O)(=O)c1ccc(N2CCCCS2(=O)=O)cc1 | inactive: 68%
35 | O=C(NC1CC1)c1ccc(Cn2c(SCc3ccccc3F)nc3cccnc32)cc1 | inactive: 113%
36 | CC(C)COc1ccc(-c2nnn(CC(=O)N3C(C)CCCC3C)n2)cc1 (stereo unspecified) | inactive: 102%
37 | Cc1ccc2c(=O)cc(C(=O)Nc3ccc(S(=O)(=O)Nc4onc(C)c4C)cc3)oc2c1 | inactive: 110%
38 | Cc1cccc(-n2ncc(C(=O)N3CCN(C(=O)c4ccco4)CC3)c2C2CCN(C(=O)OC(C)(C)C)CC2)c1 | inactive: 83%
39 | Cc1ccc2c(c1)c(=O)c(C(=O)c1ccncc1)cn2CC(=O)Nc1ccc(C(C)C)cc1 | inactive: 105%
40 | COC(=O)C(C)Nc1n[nH]c(=S)[nH]c1=O (stereo unspecified) | inactive: 125%
41 | CC(NC(=O)C(=O)Nc1c2c(nn1-c1ccccc1)CSC2)c1ccccc1 (stereo unspecified) | inactive: 55%
42 | Cc1ccc(N2CC(NC(=O)c3ccc(Br)o3)CC2=O)cc1C (stereo unspecified) | inactive: 32%
43 | COc1cccc(NC(=O)Cn2nc3c4ccccc4n(Cc4cccc(F)c4)cc-3c2=O)c1 | inactive: 119%
44 | Cc1nn(CCC(=O)NCc2ccc(N(C)C)cc2)c(=O)c2nn(-c3ccccc3)c(C)c12 | inactive: 87%
45 | Cc1nnc(N2CCN(c3ccccc3F)CC2)c2c1nnn2Cc1ccccc1Cl | inactive: 89%
46 | CC(C)(C)c1ccc(C(=O)Nc2ccc(-c3nc4cc(Cl)ccc4o3)cc2)cc1 | inactive: 81%

Row | SMILES | survival
47 | CCOc1ccc(NCc2cccn2-c2nnc(N3CCC(C(=O)NCc4ccc(C)cc4)CC3)s2)cc1 | inactive: 91%
48 | NC(CSC1CCCCO1)C(=O)O (stereo unspecified) | inactive: 113%
49 | COc1ccc(N2CCN(CC(O)COc3ccc(C(C)C)c(C)c3)CC2)cc1 (stereo unspecified) | inactive: 85%
50 | CCc1nnc(NC(=O)CSc2nccn2Cc2ccc(F)cc2)s1 | inactive: 129%
51 | COc1ccc2nc3oc(C(=O)N(C)c4ccc(Cl)cc4)cc3cc2c1 | inactive: 86%
52 | CC(=O)Nc1ccc(S(=O)(=O)N2CCN(c3nc4ccccc4s3)CC2)cc1 | inactive: 98%
53 | CCCN(C(=O)Cn1nc(Cc2cccnc2)c2ccccc2c1=O)c1ccc(C(C)C)cc1 | inactive: 98%
54 | CCc1ccccc1NC(=O)Cn1c(=O)oc2ccccc21 | inactive: 59%
55 | CCOc1ccc(CCNC(c2nnc(-c3ccccc3)o2)c2ccccc2Cl)cc1OCC (stereo unspecified) | active: 4%
56 | Cc1ccc(S(=O)(=O)Nc2nc3n(n2)C(c2ccc(Cl)cc2)C=C(c2ccccc2)N3)cc1 (stereo unspecified) | active: -4%
57 | O=C(CN1C(=O)CC(c2ccco2)Sc2ccccc21)Nc1ccc(OC(F)(F)F)cc1 (stereo unspecified) | inactive: 85%
58 | COc1ccc(CCNC(=O)c2cc(-c3ccc(C)c(C)c3)nc3ccccc23)cc1OC | inactive: 128%
59 | CCCn1c2ccc(C)cc2c2nnc(SCCN3CCCCC3)nc21 | inactive: 114%
60 | CC1=C(C(=O)OC2CCCCCC2)C(c2c(Cl)cccc2Cl)CC(=O)N1 (stereo unspecified) | inactive: 13%
61 | COc1ccc(C(=O)NCC(c2cccs2)S(=O)(=O)c2cccs2)cc1 (stereo unspecified) | inactive: 68%
62 | Cc1ccc(NC(=O)[C@H](Cc2ccccc2)N2Cc3ccccc3C2=O)cc1F | inactive: 78%
63 | CCOc1ccc(C2CC(=O)c3c([nH]c(C(=O)OC4CCCCCC4)c3C)C2)cc1 (stereo unspecified) | inactive: 79%
64 | COc1cc(OC)c(C(=O)NC2CC(C)(C)NC(C)(C)C2)cc1OC | inactive: 109%
65 | CCOCCc1nn2c(=O)cc(COC(=O)c3ccc4c(c3)OCO4)nc2s1 | inactive: 133%
66 | CN(C(=O)CN1CCC(NC(=O)c2ccccc2Br)CC1)C1CCCCC1 | inactive: 119%
67 | Cc1nn(C)c2c1c(C(F)(F)F)cc(=O)n2C(C)C(=O)NCc1ccccc1 (stereo unspecified) | inactive: 105%
68 | COc1ccc(-c2nc(CS(=O)CC(=O)NCc3ccccc3Cl)c(C)o2)cc1OC (stereo unspecified) | inactive: 76%
69 | Cn1c(C(=O)Nc2cccc(Cl)c2)cc2c(=O)n(C)c3ccccc3c21 | inactive: 85%

Row | SMILES | survival
70 | O=S(=O)(c1ccc(Br)cc1)N1CCn2cccc2C1c1ccc(Br)cc1 (stereo unspecified) | inactive: 65%
71 | Cc1ccc(CNc2nc3nc(C)c(Cl)c(C)n3n2)cc1 | inactive: 99%
72 | Cc1cccc(NC(c2nnc(-c3ccccc3)o2)c2ccc(F)cc2Cl)c1C (stereo unspecified) | inactive: 55%
73 | Cc1oc2c(c(C)cc3oc(=O)c(CC(=O)NCCc4ccc(Cl)cc4)c(C)c32)c1C | inactive: 84%
74 | Cc1ccc(Cl)cc1N1CCN(C(=O)C2CCN(S(=O)(=O)c3c(C)noc3/C=C/c3ccccc3F)CC2)CC1 | inactive: 71%
75 | Cc1ccc(-c2cn3c(n2)sc2cc(C(=O)NC4CCCCCC4)ccc23)c(C)c1 | inactive: 79%
76 | COc1cccc(-c2cn3c(n2)sc2cc(C(=O)NCCc4ccccc4)ccc23)c1 | inactive: 37%
77 | Cc1ccc(C)c(N2CCN(CCCNC(=O)c3ccc4nc(C(C)C)oc4c3)CC2)c1 | inactive: 73%
78 | N#CCSc1nnc(-c2ccccc2)n1-c1ccccc1 | inactive: 114%
79 | CC(C)c1nn2c(=O)cc(COC(=O)COc3ccccc3F)nc2s1 | inactive: 85%
80 | CCc1ccccc1NC(=O)CSc1nc2ccccc2nc1Cc1cccc(OC)c1 | inactive: 75%
81 | O=C(NCc1ccccc1)c1ccc2c(c1)sc1nc(-c3ccc(F)cc3)cn12 | inactive: 100%
82 | CCOC(=O)c1ccc(CN(Cc2ccc(Cl)cc2Cl)S(=O)(=O)c2cccc(Cl)c2)cc1 | inactive: 73%
83 | Cc1cc(-c2ccc(C)c(S(=O)(=O)N(C(C)C)C3CCCCC3)c2)on1 | inactive: 79%
84 | CC1(C)O[C@H]2[C@@H](O1)[C@@H](C(=O)Nc1cc(F)ccc1F)O[C@@H]1OC(C)(C)O[C@@H]12 | inactive: 110%
85 | COc1ccc(CN(C2CCCC2)S(=O)(=O)c2ccc(-n3cnnn3)cc2)cc1 | inactive: 134%
86 | O=C(O)CCSc1nnc(-c2ccc(Cl)cc2Cl)o1 | inactive: 65%
87 | Nc1ccc(S(=O)(=O)N2CCSC2C(=O)O)cc1 (stereo unspecified) | inactive: 101%
88 | Cc1cccc(-c2cc(C(=O)O)c3c(-c4ccc(F)cc4)[nH]nc3n2)c1 | inactive: 81%
89 | Cc1ccc2nc(N(Cc3cccnc3)C(=O)CCc3ccccc3)sc2c1 | inactive: 67%
90 | CC1(C(=O)O)COC(c2ccc(Cl)cc2)OC1 (stereo unspecified) | inactive: 107%
91 | CC(C)C1NC(=O)c2c(sc3c2CCCC3)N1 (stereo unspecified) | inactive: 92%
